In the supplement of paper PMC3334620:
In all, about 33,000 sequences were measured (“E-score (-0.5 to 0.5)”: median about -0.035, highest 2% from about 0.35 on). The list shows a part of the results.

Target: T1, Pdr3 (UniProt P33200)
T1 sequence: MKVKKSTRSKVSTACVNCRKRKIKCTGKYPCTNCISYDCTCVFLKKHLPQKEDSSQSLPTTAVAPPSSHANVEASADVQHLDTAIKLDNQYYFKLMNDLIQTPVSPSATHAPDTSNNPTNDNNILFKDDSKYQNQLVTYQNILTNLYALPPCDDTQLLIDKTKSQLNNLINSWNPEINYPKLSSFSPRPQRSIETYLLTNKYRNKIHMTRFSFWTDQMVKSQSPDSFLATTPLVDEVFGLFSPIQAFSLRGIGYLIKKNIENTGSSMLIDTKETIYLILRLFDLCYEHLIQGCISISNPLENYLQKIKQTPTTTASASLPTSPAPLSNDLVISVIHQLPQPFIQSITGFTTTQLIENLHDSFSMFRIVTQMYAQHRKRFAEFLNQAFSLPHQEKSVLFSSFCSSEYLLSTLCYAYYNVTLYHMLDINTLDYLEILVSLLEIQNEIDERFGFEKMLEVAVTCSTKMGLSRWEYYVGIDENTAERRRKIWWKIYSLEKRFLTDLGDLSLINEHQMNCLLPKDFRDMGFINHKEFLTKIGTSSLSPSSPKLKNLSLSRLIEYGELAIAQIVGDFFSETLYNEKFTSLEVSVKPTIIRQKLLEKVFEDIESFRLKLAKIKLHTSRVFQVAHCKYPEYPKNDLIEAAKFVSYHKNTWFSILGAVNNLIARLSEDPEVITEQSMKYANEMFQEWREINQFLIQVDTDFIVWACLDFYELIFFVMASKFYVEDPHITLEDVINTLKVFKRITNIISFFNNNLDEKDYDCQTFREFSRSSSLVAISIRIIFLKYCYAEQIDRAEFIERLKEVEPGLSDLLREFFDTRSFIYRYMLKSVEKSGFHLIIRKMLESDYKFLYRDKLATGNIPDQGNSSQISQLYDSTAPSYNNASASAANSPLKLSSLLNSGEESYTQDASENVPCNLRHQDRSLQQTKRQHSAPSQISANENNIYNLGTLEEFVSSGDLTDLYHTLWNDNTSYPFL
Assay: PBM E-score (8-mer binding enrichment) (E-score (-0.5 to 0.5)); higher = stronger / more preferred TF binding; most listed sequences are background and not binding sites
Details: protein concentration: 200 nM; construct: GST-full length
Summary of the method: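 PURExpress in vitro transcription/translation supplied GST-tagged yeast transcription factors, either full-length or DNA-binding domain. Applied at about 100-200 nM to universal all-10-mer Agilent arrays double-stranded by primer extension, the bound protein was detected with fluorescent anti-GST. E-scores, modified Wilcoxon-Mann-Whitney statistics, were given by the Universal PBM Analysis Suite to ungapped eight-base words pooled with their reverse complements after masliner normalisation.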

Sequence	PBM E-score
GGGCGCCC	0.33
CACGTCTC	-0.0106
ATAAACCG	0.179
CTAATGCA	0.00839
ACCCTTTC	-0.119
ACAGACGC	-0.0168
GAACGTGA	0.15
GCCTCGTA	-0.126
CACCTGCA	-0.142
GTAGCCGA	-0.0719
CATGCTAA	-0.141
GACGCTCC	0.0552
AACCGACC	0.143
ATGCTGAG	-0.198
CAACGCAG	-0.00259
GAATAACC	-0.128
GCCTGAAA	0.00211
GCGCACCC	0.21
ACACACGG	0.179
AGACGTTC	-0.0259
ATGCGCCA	-0.0436
ACCTAAAG	-0.12
CCAAACCG	0.225
GTCAAGAC	-0.202
GCTCCGAC	0.0362

Sequence	PBM E-score
ATTCTGCA	-0.0488
ATCTGGGC	-0.055
GCAGTCCA	-0.109
ATTGTGGG	-0.00957
AGCGCGAT	0.117
CTTATCGC	0.0776
TGGCACCA	-0.116
GACCGCAC	-0.0765
ACGGTTCC	0.252
ACTCCGTA	0.13
AGACCAGC	-0.164
CAAGATAA	0.0303
ATATGTAA	-0.259
ATAATGGG	0.0544
CGGACGAC	0.196
ATCGACTA	-0.128
TATCAGCA	-0.02
CAAGATGA	-0.265
ACCCAAGG	-0.0894
TAACGGGA	0.237
ACGGAACT	0.48
AGAGATCA	-0.212
CTGTAATC	-0.159
ATCGAAAT	0.00077
CAAGTTCG	-0.0795

Sequence	PBM E-score
AGGTGTCC	0.0985
AAGAAAGT	-0.0642
GGTCATCA	-0.165
ACTCACGC	-0.162
CATCGTAA	-0.0162
ACTCTATA	0.064
GTGCAATA	-0.174
AAATGCGC	0.168
GACCCATA	0.0151
GATAATGA	-0.0464
AACCGTTA	-0.238
AACCGCCG	0.247
AACAGGAC	-0.0788
AGACAATG	-0.163
CATATATA	0.0759
GAGCTACA	-0.234
AGGGACCC	-0.102
CCTGAGAC	-0.15
ACGATCGG	0.16
CGCCGTTC	0.169
TCCTTTCA	-0.0791
AGTAAAGC	0.00206
CGTAAGTA	0.00313
AGATAAGC	-0.217
CCCAAAGG	0.0134

Sequence	PBM E-score
CTCACATC	-0.107
AGTAAGCC	-0.129
ATTTCGCA	0.18
AAGGTCTG	-0.0978
CCAATTCG	-0.0707
CCTCTTAA	0.0409
CATTGCTA	-0.0336
CCACTACA	-0.0918
AGGGAGAA	-0.0563
CAACCAAA	0.105
AACTCTAC	-0.221
ACAAGTAG	-0.144
ACCATCTG	-0.0967
CCTTCCTA	-0.401
AGAACGCG	0.192
CCAGGAAA	-0.0248
CGCGCGAA	0.241
CGCTTCTA	-0.157
TGCTAGCA	-0.00367
GCACACTA	0.0604
GCGTTTAA	-0.139
CCGCCTTC	0.0869
AAGTGCGA	-0.122
CCCGAAGG	0.116
CCACTGTC	-0.252

Sequence	PBM E-score
AGTTAAAG	-0.13
CTCAGCAA	-0.0842
AACACATG	-0.0727
CAGGGCTA	-0.258
AGTCTATA	-0.247
AATTAAAG	-0.0208
ACCGTGGC	-0.107
ATGATGAC	0.056
AATCAAAG	-0.129
AAGCGAAA	-0.0467
GACGGCGA	-0.0462
ACATTCCG	0.439
AACGAAGT	-0.343
GGGCAATA	0.14
ATATCAGC	0.0261
CGACTTTA	-0.0965
TGAATGAA	-0.00047
AAAGACGG	0.0911
AACGTGTA	-0.218
GCGGTGTA	0.00159
AGATACCT	-0.075
CTAGAAAG	-0.189
CTAAACTC	-0.129
TCATTACA	-0.0495
ATTACATA	-0.191

Sequence	PBM E-score
AGATTACT	-0.0748
CGGGCAGA	0.341
CACTCAAA	-0.0687
GAACAACA	-0.0517
AGAAGACG	0.00213
CAGTGCGG	0.206
CTTTCTAC	-0.16
CATCAATC	0.0811
AGTGTGTG	-0.0302
GAGGAACC	0.0227
CGCCTTCA	-0.129
AACTGGAA	0.0374
CCGCTTGC	0.234
AGCTCAGA	-0.143
CAGGTTCC	0.159
GGTCTTAC	-0.183
ACTTGGCC	-0.04
AATATGGA	-0.0276
ATACAGCC	-0.0331
CACCCCGC	0.273
ACGCACCT	-0.00592
CTTGTGAC	-0.0992
ATGGACCG	0.126
CCATACCA	0.0245
CATGGTTC	0.168

Sequence	PBM E-score
ATTGAGGC	0.0344
CTGTATGC	-0.191
GAAAGATC	0.0565
GGGGGGAA	-0.101
CAATGAGG	-0.256
AGTGCTAT	-0.232
CAATAGGC	-0.0689
GGAAGGTA	0.158
GAGTAACC	0.0807
GAGGGGCA	-0.15
TGTATGAA	0.149
AACTTCAT	0.0233
GGGATTCA	0.166
CCTGTTCG	0.0636
CTCGTATA	-0.198
CCACCTCG	0.084
ACTGCCTA	-0.187
AAAAGTAA	0.00938
CCGAAAGG	0.166
CACGACGG	0.243
CGATAGCC	-0.049
AGGTGAAT	0.0812
